Among all 50,000 compounds or so, about 800 (1.6%) showed an effect of 50% or more. This is one part of the list.

The test has as its target Bcl-2-like protein 10 (Homo sapiens) (UniProt Q9HD36). The test can be described thus: Phenotype converters, Bcl-B/TR3 peptide binding displacement, primary biochemical FP (AID 1240).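 Also: 0% = Bcl-B with tracer peptide and DMSO and 100% = tracer peptide lacking Bcl-B.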 The settings on record: GST-Bcl-B / FITC-TR3 peptide fluorescence polarization; stronger effect = higher value; compound at 3.75 mg/L. Background: Fluorescence polarisation rises when a labelled molecule tumbles more slowly, as on binding a larger partner.
UniProt Q9HD36, sequence (Q9HD36 whole entry, looked up): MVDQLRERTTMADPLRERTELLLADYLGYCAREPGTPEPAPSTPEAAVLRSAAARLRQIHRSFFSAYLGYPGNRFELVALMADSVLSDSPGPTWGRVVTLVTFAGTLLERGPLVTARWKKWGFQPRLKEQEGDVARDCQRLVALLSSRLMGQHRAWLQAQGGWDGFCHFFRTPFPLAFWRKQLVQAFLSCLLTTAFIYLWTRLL
On to `COC(=O)Nc1ccc(NC(C)=O)cc1`, for which the displacement is -4.2%.

Regarding `CC1CC(N(C(=O)c2cccc(Br)c2)c2ccccc2)c2ccccc2N1` (stereo not drawn), the displacement is -3.5%.

As to `CCOC(=O)c1ccc2nc(C)c(CC)c(Cl)c2c1`, the displacement is 6.4%.

`O=C1CS/C(=N\N=C/c2ccc(OCc3c(F)cccc3Cl)cc2)N1`: the displacement was -1.6%.

Turning to `Cc1occc1C(=O)NCc1cccnc1`, the displacement was 1.6%. As for `CCOC(=O)c1c(NC(=S)NC(C)=O)sc2c1CCC2`, the displacement worked out at 0.1%. Then `Cc1ccc(C)c(N2CC(C(=O)Nc3ccc(Br)cc3)CC2=O)c1` (stereo not drawn), with -6.2%; and `COc1ccc(S(=O)(=O)N(CC(=O)N2CCCC2)Cc2ccccc2)cc1OC`, with 2.5%. As for `COc1ccc(NC(=O)CSC(N)=O)cc1`, the displacement is 5.2%. Consider `CCOc1ccc(N(CC(=O)Nc2ccc(Br)cc2)S(=O)(=O)c2ccc(SC)cc2)cc1`, for which the displacement came to 14%. Then `CCC(CC)NCc1ccc2c(c1)c1ccccc1n2CC`, with 6.2%. Under `COc1cc(OC)cc(C(=O)Nc2nc3ccc4ccccc4c3s2)c1` stands -20.1%; under `COc1ccc(N(CC(=O)Nc2cccc3ccccc23)S(=O)(=O)c2ccc(C)cc2)cc1OC`, 6.8%. Under `CCOc1ccc(N(CC(=O)N2CCOCC2)S(=O)(=O)c2ccc(SC)cc2)cc1` stands -1.3%; under `O=C(NCc1cccc(F)c1)c1c(O)c2ccccc2[nH]c1=O`, 9%; under `CCOc1cccc(C(=O)Nc2nnc(-c3cccs3)s2)c1`, 4.5%.

Regarding `CCOC(=O)c1cccc(N2C(=O)C3C4C=CC(C4=C(C)C)C3C2=O)c1` (stereo not drawn), the displacement was 16.7%.

Regarding `CCN1C(=O)N(CC)C2C1N(COC(C)=O)C(=O)N2COC(C)=O` (stereo not drawn), the displacement was found to be 1.5%. Then `CC1(C)CCC[C@@]2(C)C1CC[C@@]1(C)OC(=O)CC21` (stereo partly drawn), with 14.7%; and `CC(C)COc1ccc(C(=O)N2c3ccccc3CC2C)cc1` (stereo not drawn), with -8.5%; and `CCOC(=O)c1ccccc1N1C(=O)C=CC1=O`, with -6%. Then `COc1ccc(NC(=O)C2CCCN(Cc3ccccc3)C2)cc1OC1CCCC1` (stereo not drawn), with -3.9%; and `O=C(NCCN1CCN(C(=O)c2ccc(Br)cc2)CC1)C(=O)Nc1ccccc1`, with 15.3%; and `Cn1c(=O)c2c([nH]c(=S)n2Cc2ccc(Cl)c(Cl)c2)n(C)c1=O`, with -21.9%. Turning to `Cc1cc(Cl)ccc1OC(C)C(=O)N1CCN(c2cccc(Cl)c2)CC1` (stereo not drawn), the displacement was -4.9%. Turning to `Cc1c(/C=C2\C(=O)NC(=O)N(c3ccc(Cl)cc3)C2=O)c2ccccc2n1C`, the displacement is 104%.

For the compound `Cc1cc(C)nc(SCC(=O)Nc2ccccc2C)n1`, the displacement is -5.7%. Then `NCCNc1ccc(C(F)(F)F)cc1[N+](=O)[O-]`, with -5.7%.

Regarding `COn1c(C)c(C)c2c3nonc3ccc21`, the displacement was determined as 2.5%. Regarding `Nc1nc(SCc2ccc(Cl)c(Cl)c2)nc2sc3c(c12)CCC3`, the displacement was -8.9%. As to `CCOC(=O)C1=C(C)NC(C)=C(C(=O)OCC)C1c1ccc(OCC(N)=O)cc1`, the displacement is 8.5%.

`Nc1ccc2nc(SCC(=O)c3ccc(-c4ccccc4)cc3)sc2c1`: the displacement is -9.1%. Under `CCOc1cc(C2C3=C(CC(C)(C)CC3=O)Nc3ccccc3N2C(C)=O)ccc1O` (stereo not drawn) stands 4.9%; under `Cc1[nH]c2ccccc2c1/C=C(\C#N)C(=O)NCc1ccco1`, 3.9%; under `O=C(N/N=C/c1ccc(Cl)c(Cl)c1)c1cc(-c2ccccc2)n[nH]1`, -12.9%. Then `Cc1cc(Cl)cc(C)c1OCCCCNCCO`, with -8%.

Consider `Fc1ccc(COc2ccccc2/C=N/n2cnnc2)cc1`, for which the displacement was -9.5%. In the case of `COc1cccc(CN2CCN(C(=O)c3ccc(-c4ccccc4)cc3)CC2)c1`, the displacement is -5%. `CCCC(=O)Nc1cccc(NC(=O)c2cc3ccccc3o2)c1`: the displacement was 2.3%. For `O=C(CSCC(=O)Nc1ccccc1-c1ccccc1)Nc1ccccc1`, the displacement amounted to 0.4%. Under `CC12CC3(C)CC(C)(C1)CC(C(=O)NN)(C2)C3` stands 0.3%; under `COC(=O)C1=C(C)NC2=C(C(=O)c3ccccc32)C1c1ccc(OCc2ccc(Cl)cc2Cl)cc1` (stereo not drawn), 9.7%; under `COc1ccccc1N1CCN(C(=O)CN(c2ccc(C)cc2)S(C)(=O)=O)CC1`, 1.6%.

For the compound `O=[N+]([O-])c1ccc(N2CCOCC2)cc1NCCc1ccccc1`, the displacement was 10.4%.

Take `CC1=C(C(=O)OCc2ccccc2)C(c2ccc(O)c([N+](=O)[O-])c2)C2=C(CC(c3ccccc3)CC2=O)N1` (stereo not drawn): the displacement was -2.3%.

For `CS(=O)(=O)N(CC(=O)N1CCOCC1)c1ccc(Br)cc1`, the displacement turned out to be 0.5%.

As for `CCOc1ccc(/C=C2\C(=O)NC(=S)N(c3ccc(Br)cc3)C2=O)cc1Cl`, the displacement was 10.7%. Under `Cc1ccc(NC(=O)C(C)N2C(=O)c3ccccc3C2=O)cc1C` (stereo not drawn) stands -6.1%; under `Cc1ccc2nc(Nc3nc(C)cc(C)n3)[nH]c2c1`, -2%. Under `CC(C)c1ccc(/C=C(\NC(=O)c2ccccc2)C(=O)NC2CCS(=O)(=O)C2)cc1` (stereo not drawn) stands 23%; under `COC(=O)C(=C/C=C/N(C)C)C(=O)OC`, 4.9%. Under `O=C1CC(N2CCCC2)C(=O)N1c1ccc(F)cc1` (stereo not drawn) stands 3.2%. On to `Cc1nn(CC(=O)Nc2c(F)cc(F)cc2Br)c(C)c1[N+](=O)[O-]`, for which the displacement was -2.8%. Under `Cc1ccccc1NC(=O)/C(=C\c1c[nH]c2ccccc12)NC(=O)c1ccccc1` stands 3.2%; under `CC(CC(=O)c1ccc(Cl)cc1)CC(=O)c1ccc(Cl)cc1`, -0.9%; under `COc1ccc(N2C(=O)CC(N3CCC(Cc4ccccc4)CC3)C2=O)cc1` (stereo not drawn), 8.8%. `O=C(CSc1nc2ccccc2[nH]1)c1ccc2ccccc2c1`: the displacement was -15.9%. Turning to `COc1ccc(/C(N)=N/OC(=O)c2cccc(C)c2)cc1`, the displacement amounted to 3%. In the case of `CCCCCCCCC(=O)N/N=C/c1ccc(Cl)cc1`, the displacement came out at 1.8%. Then `CCOc1cccc(=Nc2ccc(NC(C)=O)cc2)c2c(C)oc(C)c12`, with 28.8%; and `CCOC(=O)C(=CNCCCC(=O)O)C(=O)OCC`, with -2%.

Take `NS(=O)(=O)c1ccc(-c2ccc(/C=C3/C(=O)NN(c4ccc(Br)cc4)C3=O)o2)cc1`: the displacement was 20.8%. Under `COc1ccccc1/C=C1\SC(=S)N(C(C(=O)O)C(C)C)C1=O` (stereo not drawn) stands 5.8%; under `COc1ccc(C(=O)Nc2ccc(S(=O)(=O)N3CCCCC3)cc2)cc1OC`, 6.3%; under `CC1=C(C(=O)OCCCc2ccccc2)C(c2cccs2)NC(=O)N1` (stereo not drawn), -11.3%.

As for `CCOc1ccc(-c2nnc(NC(=O)Nc3ccc(Cl)c(Cl)c3)s2)cc1`, the displacement stood at 13.5%. Then `CCOc1ccc(C(=O)Nc2cccc3nsnc23)cc1[N+](=O)[O-]`, with 10.7%; and `COc1cc(OC)cc(C(=O)N2CCN(Cc3cccc([N+](=O)[O-])c3)CC2)c1`, with -8.2%.

Take `Nc1nnc(COc2ccc(Cl)cc2)s1`: the displacement was -1.8%.

For the compound `CSc1ccccc1NC(=O)c1cccc(Br)c1`, the displacement was -6.6%. In the case of `O=C1C(=O)N(CC2CCCO2)C(c2cccc([N+](=O)[O-])c2)/C1=C(/O)c1ccccc1` (stereo not drawn), the displacement is -20%. With `Oc1ccccc1N=Cc1c(O)c(I)cc2oc3c(c12)CCCC3`, the displacement is 130%.

Turning to `Cc1cccc(OCC(=O)N/N=C/c2c3ccccc3cc3ccccc23)c1`, the displacement is 3.1%. Then `Cc1nc(N)sc1C(=O)N/N=C/c1ccco1`, with -1.9%. Take `O=C(CSc1ccc(Cl)cc1Cl)Nc1ccc(Br)cc1`: the displacement was 12%. Under `O=C(Nc1cccc(Cl)c1)c1ccc(C(=O)Nc2cccc(Cl)c2)cc1` stands 2.7%. For `N#Cc1c(NC(=O)c2cc(S(=O)(=O)N3CCOCC3)c(Cl)cc2Cl)sc2c1CCCC2`, the displacement came out at 1.4%. Then `O=C(CSc1cc(Cl)ccc1Cl)Nc1ccccc1[N+](=O)[O-]`, with 11.1%; and `O=[N+]([O-])c1ccc(OCC(O)Cn2cnc3ccccc32)cc1` (stereo not drawn), with -1.7%; and `O=C(c1cc2nc(-c3ccccc3)cc(C(F)(F)F)n2n1)N1CCCCC1`, with -7.4%. Take `COc1ccc(NC(=O)C(=O)N/N=C/c2cccc(OC)c2O)cc1`: the displacement was -8.3%.

Consider `CC1(C)CC(=O)C2=C(C1)OC1=C(C(=O)CC(C)(C)C1)C21C(=O)Nc2ccccc21`, for which the displacement worked out at 10.4%. Regarding `CCOC(=O)c1c(-c2cc(C)ccc2C)csc1NC(=O)c1c(F)cccc1F`, the displacement was -4.9%. Under `Cn1c(SCC(=O)NCc2ccco2)nc2ccccc21` stands -16.9%; under `CC(C)C(=O)Nc1ccc2oc3ccccc3c2c1`, 2.9%; under `Cc1ccc(-n2c(=O)c3c4c(sc3n3cnnc23)COC(C)(C)C4)cc1`, -1.3%. Under `O=C(COc1ccc(Br)cc1)Nc1cccc2nsnc12` stands 1.9%. Then `Cc1onc(-c2ccccc2Cl)c1C(=O)Nc1nn[nH]n1`, with -6.5%. As for `CCOC(=O)C1=C(C)N(CCOC)C(=O)/C1=C\c1ccc(O)c(OCC)c1`, the displacement stood at 7.8%. With `Cc1oc2ccc(OC(=O)c3ccc([N+](=O)[O-])cc3)cc2c1C(=O)OC(C)C`, the displacement came to 8.3%. With `O=C(CN1C(=O)/C(=C/c2ccccc2Cl)SC1=S)Nc1cccc(O)c1`, the displacement was -10.5%. For the compound `CCOC(=O)NC12CC3CC(C)(CC(C)(C3)C1)C2`, the displacement amounted to 4.3%. Consider `O=C1c2cccc3cccc(c23)C(=O)N1CCC(=O)n1nnc2ccccc21`, for which the displacement was 7.6%.

Regarding `COc1ccc(CN2CCN(Cc3c[nH]c4ccccc34)CC2)cc1`, the displacement is -1.7%.

As to `CCCOc1cccc(C(=O)Nc2scc(-c3ccccc3)c2C(=O)OC(C)C)c1`, the displacement is -6.4%.

`CN(CCC(=O)NC1CC(C)(C)N(C)C(C)(C)C1)C1CC(C)(C)N(C)C(C)(C)C1`: the displacement was -3.5%. Under `CC(=O)Oc1ccc2c(C)cc(=O)oc2c1I` stands -1.7%; under `O=C(Nc1ccc2c(c1)OCO2)c1cccc(I)c1`, 8.9%. Then `O=C1/C(=C/c2ccc(-c3ccccc3[N+](=O)[O-])o2)SC(=S)N1c1cccc(C(F)(F)F)c1`, with -3%.

`COc1cccc(-n2c(O)c(C=Nc3ccccc3F)c(=O)[nH]c2=O)c1`: the displacement was -18.9%. For `COc1ccc(S(=O)(=O)N2CCN(Cc3ccc(OC)c(OC)c3)CC2)cc1`, the displacement is -2.2%. Under `CC(C)(C)NC(=O)c1cccc(N2C(=O)c3cccc([N+](=O)[O-])c3C2=O)c1` stands -12.5%. As to `COc1cc(/C=N/NC(=O)CCNc2n[nH]c(=O)[nH]c2=O)cc(Br)c1O`, the displacement came out at 8.1%. As to `Cc1ccc(-c2nc3ccccc3o2)cc1NC(=S)NC(=O)/C=C/c1ccccc1`, the displacement stood at 0.3%. Then `O=C(/C=C/c1ccccc1)N1CCN(Cc2ccc3c(c2)OCO3)CC1`, with 5.2%. As for `COc1ccc(Cl)cc1C(=O)Nc1ccncc1`, the displacement was 7.9%.

As for `CC(C)CNC(=O)C1CN(S(=O)(=O)c2ccccc2)CCN1S(=O)(=O)c1ccccc1` (stereo not drawn), the displacement stood at 4.4%. For `O=C1CSC(c2cn(-c3ccccc3)nc2-c2ccccc2)N1Cc1ccc(Cl)cc1` (stereo not drawn), the displacement was -7.2%.

Values taken from PubChem BioAssay AID1240 (Sanford-Burnham Center for Chemical Genomics, 2008).
